In all, about 46,000 compounds went through this assay and about 60 (0.1%) were called active. Roughly 3% stayed inconclusive and do not appear here. Calls come from the whole dose curve; as a rule, active = well fitted inhibition curve with a large enough effect; inconclusive = small, poorly fitted or top-dose-only effect; inactive = no such curve, though single readings can be large or run the other way. The list shows a part of the results.
assay: Primary qHTS assay for Inhibitors of ovarian cancer metastasis using an organotypic tumor microenvironment (TME) model.; note: nearly all actives have a fitted effect of over 65% in size;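 for activity change, negative = inhibition: plate controls were DMSO wells for no effect and tomatine positive control wells for full effect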; conditions: SKOV3ip1-GFP adhesion/invasion on 3D omental model, fluorescence; series mostly up to 45.8 µM; activity change, negative = inhibition: at the top concentration
Method in brief: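 qHTS, 4-pt dose (0.36-46 umol/L); SKOV3ip1-GFP, 1,200 cells/well, no FBS; primary omental fibroblast/mesothelial co-culture 48 h pre-grown; 2 h RT + 16 h 37 C; PBS wash, 4% PFA; GFP count 488/509 nm.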

SMILES	outcome	activity change, negative = inhibition
COc1ccccc1N(CC(=O)Nc1ccc2c(c1)OCO2)S(=O)(=O)c1ccc(C)cc1	inactive	–
CCCNC(=O)c1ccc(-c2nc(CS(=O)(=O)c3ccc(C)cc3)c(C)o2)cc1	–	inactive: 9.26%
CCOC(=O)N1CCN(Cc2nc3cc(NC(=O)C(C)C)ccc3n2C(C)C)CC1	inactive	–
NC(=O)Cn1c(=O)n(CCCCCC(=O)NCc2ccc(F)cc2)c(=O)c2sccc21	–	inactive: 2.55%
O=C(C1COc2ccccc2O1)N(Cc1cccnc1)c1nc2c(Cl)cccc2s1 (stereo not given)	–	inactive: -21.3%
COc1ccc(OC)c(NC(=O)CSc2ncc3c(n2)-c2ccccc2N(C)S3(=O)=O)c1	–	inactive: -6.5%
CCOc1cccc(C2c3[nH]c4ccccc4c3CCN2C(=O)CSCc2ccc(F)cc2)c1 (stereo not given)	–	inactive: 1.29%
Cc1ccc2nc(COc3ccccc3NC(=O)c3ccccc3F)cc(=O)n2c1	inactive	–
Cc1ccc2c(c1)c(CC(=O)Nc1ccc(C)c(F)c1)c(C(=O)O)n2C	–	inactive: 4.29%
CCc1cccc(NC(=O)C2Cc3ccccc3N2C(=O)c2ccccc2)c1 (stereo not given)	inactive	–
O=C(c1ccc2c(c1)N(Cc1c(F)cccc1Cl)C(=O)c1ccccc1S2)N1CCOCC1	inactive	–
CCN(CC)C(=O)Cn1c(=O)n(-c2ccc(C)c(C)c2)c(=O)c2c3c(sc21)CCCCC3	inactive	–
O=C(Nc1ccc(F)cc1F)c1cc(-c2ccc(Cl)cc2)on1	inactive	–
CCOC(=O)c1ccc(NC(=O)CCn2c(=O)c3cccn3c3cccnc32)cc1	–	inactive: -2.95%
Cc1ccccc1-c1noc(-c2cccnc2N2CCN(c3ccccc3)CC2)n1	inactive	–
CCOC(=O)/C(C#N)=C/c1ccc(-c2ccc(Br)cc2)o1	inactive	–
COc1cccc(C(=O)Nc2cccc(-c3cn4ccsc4n3)c2)c1OC	–	inactive: -15.9%
CCCCS(=O)(=O)CC(O)CSc1nc(-c2ccc(C)cc2)cc(-c2ccccc2)c1C#N (stereo not given)	–	inactive: -1.15%
O=C(CN1C(=O)COc2ccc(S(=O)(=O)N3CCOCC3)cc21)N1CCN(c2cccc(Cl)c2)CC1	–	inactive: -16.9%
Cc1cccc(-c2nc3c4ccccc4n(Cc4cccc(Cl)c4)c(=O)n3n2)c1	–	inactive: 8.67%
CCc1ccc(NC(=O)CSc2ccc(-c3ccccn3)nn2)cc1	–	inactive: 9.21%
O=C(NCCCN1CCN(c2ccc(F)cc2)CC1)c1cnn(-c2ccc(F)cc2)c1-n1cccc1	–	inactive: 2.77%
COc1ccc(NC(=O)c2ccc3c(SCC(=O)O)c4c(nc3c2)CCCC4)c(OC)c1	inactive	–
COc1cc(NS(=O)(=O)c2cc3c(cc2C)N(C)CCO3)cc(OC)c1OC	–	inactive: -8.19%

SMILES	outcome	activity change, negative = inhibition
COc1ccc(NC(=O)C2CCCN(c3ncnc4c3nc3n4CCCCC3)C2)c(OC)c1 (stereo not given)	–	inactive: -3.12%
Cc1cc(Br)ccc1NC(=O)Cn1cc(S(=O)(=O)N2CCN(c3ccccc3F)CC2)c2ccccc2c1=O	–	inactive: -28.6%
O=S(=O)(c1ccc(-c2cc(C(F)(F)F)on2)s1)N1CCN(c2ccc(F)cc2)CC1	–	inactive: 5.56%
Cc1ccc(-n2c3c(cc(-c4nc(-c5ccc(Cl)cc5)cs4)c2=O)C(=O)CC(C)(C)C3)cc1C	–	inactive: 0.939%
C#CCSc1nc(-c2ccccc2)cc(-c2ccccc2)c1C#N	–	inactive: 7.72%
CC1=C(c2ccc(C(C)C)cc2)S(=O)(=O)NC1=NCCCN1CCN(c2ccccc2F)CC1	–	inactive: -13.1%
CCn1cc(C(=O)N2CCN(c3cccc(Cl)c3)CC2)c2cc(OC)c(OC)cc2c1=O	–	inactive: 1.54%
CCS(=O)(=O)N1CCc2cc(C(=O)Nc3ccc(C(=O)OC)cc3)ccc21	–	inactive: -5.55%
CCOc1ccc(CNC(=O)c2cnc3sc(N4CCOCC4)nn3c2=O)cc1	–	inactive: 13.1%
Cc1ccc(CN2CCc3nc(Nc4ccc5c(c4)OCCO5)ncc3C2)cc1	inactive	–
Cc1ccc(C)c(N2CCN(C(=O)CCc3nnc4n(CC(C)C)c(=O)c5ccccc5n34)CC2)c1	inactive	–
Cc1[nH]c(=O)c(C#N)cc1-c1ccncc1	–	inactive: -13.1%
Cc1ccc(NC(=O)Cn2c(=O)c3ccccc3n3nncc23)cc1	–	inactive: 3.29%
CC(=O)c1ccc(Nc2nc3c(S(=O)(=O)c4ccccc4)nnn3c3ccc(Cl)cc23)cc1	–	inactive: -0.253%
CCSc1oc(-c2ccco2)nc1S(=O)(=O)c1ccc(Br)cc1	–	inactive: -2.3%
Cc1ccc(-c2nn(-c3ccc(F)cc3)c3c2cnc2cc(F)c(F)cc23)cc1	inactive	–
CCCN(CCC)C(=O)Cn1c(=O)n(-c2ccc(Cl)cc2)c(=O)c2c3c(sc21)CCCCC3	inactive	–
COc1cc(NC(=O)c2cc3c(s2)-c2ccccc2OC3)cc(OC)c1OC	–	inactive: 1.26%
CCCc1cc(=O)[nH]c(SCC(=O)N2CCN(c3ccccc3OC)CC2)n1	–	inactive: 0.634%
COc1ccccc1-c1cc2nc(C)c(CCC(=O)O)c(C)n2n1	inactive	–
COc1ccccc1NC(=O)Cn1c(=O)n(CCC(=O)NCC2CCCO2)c(=O)c2cc(OC)c(OC)cc21 (stereo not given)	–	inactive: 8.39%
Cc1ccc2nc(-c3ccc(O)cc3)c(Nc3ccc(Cl)cc3)n2c1	–	inactive: -8%
CCC(=O)N1CCc2cc(S(=O)(=O)NCCC(=O)Nc3cc(C)ccc3OC)ccc21	–	inactive: 0.819%
COC(=O)CCNC(=O)NC(CCC(C)C)c1c(-n2cccc2)sc2c1CCN(C)C2 (stereo not given)	inactive	–

SMILES	outcome	activity change, negative = inhibition
CCN1c2ccccc2-c2nc(SCC(=O)NCc3ccccc3)ncc2S1(=O)=O	–	inactive: 0.987%
Cc1ccc(NC(=O)Cn2cc(S(=O)(=O)N3CCCC3)c(S(=O)(=O)N3CCCC3)c2)cc1F	–	inactive: 9.19%
Cc1ccccc1C(=O)Nc1ccc(OCc2cc(=O)n3ccccc3n2)cc1	–	inactive: 4.83%
CC(C)[C@H](CO)Nc1nc(Nc2cccc(Cl)c2)c2ncn(C(C)C)c2n1	–	inactive: -16%
Cc1nn(-c2ccc(N3CCCCC3)nn2)c(C)c1CCC(=O)NCc1ccc(OC(C)C)cc1	inactive	–
COc1cccc(C(=O)NCC(c2ccc(N(C)C)cc2)N2CCc3ccccc32)c1 (stereo not given)	inactive	–
COc1cccc(NC(=O)CCN2CCN(c3ccccc3)CC2)c1	–	inactive: 1.57%
Cc1ccc(C)c(S(=O)(=O)c2nnn3c2nc(Nc2ccc(C)c(C)c2)c2ccccc23)c1	–	inactive: 3.8%
Cc1cc(C)cc(NS(=O)(=O)c2ccc(-n3cccn3)cc2)c1	–	inactive: 0.766%
Cn1cc(CCC(=O)NCc2ccc(Cl)cc2)c2ccccc21	inactive	–
COCCCNC(=O)c1oc2c(c1C)-c1nn(Cc3ccc(Cl)cc3)cc1CC2	–	inactive: -9.04%
COc1ccc(-c2cccc(NS(=O)(=O)c3ccc(C)s3)c2)nn1	–	inactive: 5.02%
O=C(O)c1c(-c2ccccc2)oc2ccc(OCc3ccc(Cl)c(Cl)c3)cc12	inactive	–
CC1CCC(Nc2ncnc3onc(-c4ccc(F)cc4)c23)CC1 (stereo not given)	–	inactive: 1.59%
CCOc1cc(CNc2ccc(C(=O)O)cc2)ccc1OCc1ccccc1	–	inactive: -20.7%
CCOc1cccc(C(=O)N(Cc2ccc(N(C)C)cc2)CC2CCCO2)c1 (stereo not given)	–	inactive: -6.08%
Cc1ccccc1CC1C(=O)Nc2ccc(Br)cc21 (stereo not given)	inactive	–
Cn1c(=O)n(C)c2cc(N3CCOCC3)c(NS(=O)(=O)c3ccc(C(C)(C)C)cc3)cc21	–	inactive: 4.32%
CCc1ccc(CNCc2c(C(=O)O)c(C)n(Cc3c(F)cccc3Cl)c2C)cc1	–	inactive: -3.19%
COc1cccc(-n2c(=O)c3c(C)c(C)sc3n(CC(=O)Nc3ccccc3OC)c2=O)c1	–	inactive: 8.31%
CCOC(=O)c1c(-c2ccc(C)cc2)csc1NC(=O)c1cc(-c2ccc(Cl)cc2)on1	inactive	–
Nc1nc(SCC(=O)Nc2cccc(C(F)(F)F)c2)n[nH]1	–	inactive: 1.56%
CC1CCN(S(=O)(=O)c2ccc3c(ccc(=O)n3CC(=O)Nc3ccc(C(C)C)cc3)c2)CC1	–	inactive: -7.29%
CCOc1ccc(N(C(=O)c2ccccc2F)S(=O)(=O)c2ccc3c(c2)n(C)c(=O)n3C)cc1	inactive	–

SMILES	outcome	activity change, negative = inhibition
Cc1ccc(C(=O)CCC(=O)Nc2ccc(C)cc2C)cc1	inactive	–
CCc1ccccc1NC(=O)N1CCC(CN2CCc3ccccc3C2)CC1	–	inactive: 0.972%
CNC(=O)Cn1nc(-c2ccc(Cl)cc2)c2ccccc2c1=O	–	inactive: 1.17%
COc1ccc(-c2nc(CCNC(=O)c3cccs3)cs2)cc1	inactive	–
CS(=O)(=O)N(CC(=O)Nc1ccc(Br)cc1)c1ccccc1Br	inactive	–
Cc1ccc(CN(C(=O)COc2ccc(Cl)cc2)c2ccccn2)o1	–	inactive: 8.28%
Cc1cc(NC(=O)CCNS(=O)(=O)c2ccc3c(c2)CCCC(=O)N3)ccc1Br	–	inactive: 6.26%
Cc1nn(C)c2c1c(-c1ccccc1)cc(=O)n2Cc1ccccc1Cl	inactive	–
COc1cccc(N2CCN(C(=O)C3CCN(S(=O)(=O)c4cccc5nonc45)CC3)CC2)c1	–	inactive: -0.518%
CCOC(=O)c1ccc(NC(=O)CC2Sc3ccc(C(F)(F)F)cc3NC2=O)cc1 (stereo not given)	–	inactive: 2.99%
COc1ccc(NC(=O)CSC2=Nc3ccccc3C3=NC(CCC(=O)NCc4ccc(F)cc4)C(=O)N23)cc1Cl (stereo not given)	–	inactive: 6.06%
CCCCC(CC)CNC(=O)CN(C)S(=O)(=O)c1ccc2c(c1)c(=O)n(C)c(=O)n2C (stereo not given)	inactive	–
COc1cccc(C(=O)Nc2cccc(NC(=O)c3ccc(Cl)cc3Cl)c2)c1	–	inactive: 1.67%
Cc1ccc(C)c(N2CCN(C(=O)c3cc4c(=O)n(Cc5ccco5)ccc4nc3C)CC2)c1	–	inactive: -2.05%
CCCCN(C)C(=O)Cn1c(C2CC(=O)N(c3ccc(C)cc3)C2)nc2ccccc21 (stereo not given)	inactive	–
COc1ccc(CCNC(=O)Cn2nc(C)n3c(cc4cc(F)ccc43)c2=O)cc1OC	–	inactive: 7.53%
Cc1ccc(C)c(NC(=O)Cn2c(=O)nc(-c3ccccc3)c3ccccc32)c1	inactive	–
Cc1cccc(NS(=O)(=O)c2ccc3c(c2)[C@H]2C=CC[C@H]2[C@@H](c2ccc(F)cc2)N3)c1	–	inactive: 8.38%
CCc1ccc(C(=O)c2cn(CC(=O)Nc3cc(OC)ccc3OC)c3ccc(C)cc3c2=O)cc1	–	inactive: 3.69%
CCCOc1ccc(-c2nn(-c3ccccc3)cc2C2NC(=O)NC(C)=C2C(=O)OC)cc1 (stereo not given)	–	inactive: -5.02%
COC(=O)c1cc(S(=O)(=O)NCC2CCN(Cc3ccc(C)cc3)CC2)cn1C	–	inactive: 20.5%
CCC(C)Nc1sc(S(=O)(=O)CC)nc1S(=O)(=O)c1ccc(C)cc1 (stereo not given)	–	inactive: 12.5%
CCOc1ccc(CNC(=O)CCCn2nc(C)c3sc4ccccc4c3c2=O)cc1	–	inactive: 1.51%

Reference: PubChem BioAssay AID1963576 (National Center for Advancing Translational Sciences (NCATS), 2024)
